Yeast fitness gain data for one molecule are collected here from the supplement of paper PMC11741623.

Some of the results follow. Interaction screen of human proteins with wild-type SARS-CoV-2 proteins by split-DHFR complementation in yeast, 1 µg/mL methotrexate. Value = fitness of the pair (three or more lineages) minus that of the viral protein without a human partner, on a scale set by negative (0) and fused positive (1) controls, mean of up to three cultures; higher = more likely to interact. Active = false discovery rate below 0.05 (one-sided t-test) in at least one culture. Nearly all pairs are not hits, and differences among them are mostly noise (correlation between cultures about 0.3); most hits were seen in one culture only. Human sequences are the Swiss-Prot entries looked up by gene name; the clone may be another isoform. NSP2 values were corrected by the authors for a growth advantage. Listed are human proteins with a hit and a random twelfth of the others.

Sequences and labels used below:
B1: HHIPL2, Q6UWX4 (protein)
chain: MLRTSTPNLCGGLHCRAPWLSSGILCLCLIFLLGQVGLLQGHPQCLDYGPPFQPPLHLEFCSDYESFGCCDQHKDRRIAARYWDIMEYFDLKRHELCGDYIKDILCQECSPYAAHLYDAENTQTPLRNLPGLCSDYCSAFHSNCHSAISLLTNDRGLQESHGRDGTRFCHLLDLPDKDYCFPNVLRNDYLNRHLGMVAQDPQGCLQLCLSEVANGLRNPVSMVHAGDGTHRFFVAEQVGVVWVYLPDGSRLEQPFLDLKNIVLTTPWIGDERGFLGLAFHPKFRHNRKFYIYYSCLDKKKVEKIRISEMKVSRADPNKADLKSERVILEIEEPASNHNGGQLLFGLDGYMYIFTGDGGQAGDPFGLFGNAQNKSSLLGKVLRIDVNRAGSHGKRYRVPSDNPFVSEPGAHPAIYAYGIRNMWRCAVDRGDPITRQGRGRIFCGDVGQNRFEEVDLILKGGNYGWRAKEGFACYDKKLCHNASLDDVLPIYAYGHAVGKSVTGGYVYRGCESPNLNGLYIFGDFMSGRLMALQEDRKNKKWKKQDLCLGSTTSCAFPGLISTHSKFIISFAEDEAGELYFLATSYPSAYAPRGSIYKFVDPSRRAPPGKCKYKPVPVRTKSKRIPFRPLAKTVLDLLKEQSEKAARKSSSATLASGPAQGLSEKGSSKKLASPTSSKNTLRGPGTKKKARVGPHVRQGKRRKSLKSHSGRMRPSAEQKRAGRSLP

For one assay, the target named is SARS-CoV-2 E. Kind of assay: yeast fitness gain over the viral ORF with no human partner (scaled fitness); higher = more likely to interact. As for the experimental part: (§1)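 Split mouse DHFR complementation in pooled diploid yeast: human ORFeome clones carry one fragment and viral ORFs the other; barcoded lineages compete in 1 µg/mL methotrexate and fitness is read by barcode sequencing in up to three cultures.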
As for B1, the yeast fitness gain is inactive: -0.0991.

In another assay the target is SARS-CoV-2 M. The description is as above. As for the experimental part: as §1
With B1, the yeast fitness gain is inactive: -0.00596.

Another assay concerns the target SARS-CoV-2 N. The description is as above. As for the experimental part:
as §1
Consider B1, for which the yeast fitness gain is inactive: -0.078.

For a further assay, the target named is SARS-CoV-2 NSP1. The assay is described as above. As for the experimental part:
as §1
Consider B1, for which the yeast fitness gain is inactive: -0.0273.

A further assay addresses SARS-CoV-2 NSP10. The assay is described as above. As for the experimental part:
as §1
Take B1: the yeast fitness gain was inactive: -0.0329.

A further assay addresses SARS-CoV-2 NSP12. Described as above. As for the experimental part: as §1
For the molecule B1, the yeast fitness gain was inactive: -0.0347.

Another assay deals with SARS-CoV-2 NSP13. Described as above. As for the experimental part: as §1
B1: the yeast fitness gain was inactive: -0.0666.

A further assay deals with SARS-CoV-2 NSP15. Described as above. As for the experimental part:
as §1
Consider B1, for which the yeast fitness gain is inactive: -0.0231.

The next assay has as its target SARS-CoV-2 NSP16. The description is as above. As for the experimental part:
as §1
B1: the yeast fitness gain was inactive: 0.0312.

The next assay has as its target SARS-CoV-2 NSP2. The description is as above. As for the experimental part: as §1
For B1, the yeast fitness gain is inactive: -0.286.

A further assay deals with SARS-CoV-2 NSP5. Described as above. As for the experimental part:
as §1
As for B1, the yeast fitness gain is inactive: -0.017.

In another assay the target is SARS-CoV-2 NSP6. Described as above. As for the experimental part: as §1
On to B1, for which the yeast fitness gain was inactive: 0.0483.

Another assay has as its target SARS-CoV-2 NSP8. The assay is described as above. As for the experimental part:
as §1
With B1, the yeast fitness gain is inactive: -0.0382.

For the next assay, the target named is SARS-CoV-2 NSP9. The description is as above. As for the experimental part:
as §1
As for B1, the yeast fitness gain is inactive: -0.0827.

The next assay deals with SARS-CoV-2 ORF10. The description is as above. As for the experimental part: as §1
As to B1, the yeast fitness gain was inactive: -0.104.

In a further assay the target is SARS-CoV-2 ORF3A. Described as above. As for the experimental part:
as §1
In the case of B1, the yeast fitness gain is inactive: 0.12.

In the next assay the target is SARS-CoV-2 ORF3B. The assay is described as above. As for the experimental part: as §1
Consider B1, for which the yeast fitness gain was inactive: -0.033.

The next assay has as its target SARS-CoV-2 ORF6. Described as above. As for the experimental part:
as §1
As for B1, the yeast fitness gain is inactive: -0.016.

In another assay the target is SARS-CoV-2 ORF7A. Described as above. As for the experimental part: as §1
In the case of B1, the yeast fitness gain is inactive: -0.0817.

The target of a further assay is SARS-CoV-2 ORF7B. The assay is described as above. As for the experimental part:
as §1
Take B1: the yeast fitness gain was inactive: -0.153.

A further assay concerns the target SARS-CoV-2 ORF8. The description is as above. As for the experimental part: as §1
Consider B1, for which the yeast fitness gain is inactive: -0.0404.

For the next assay, the target named is SARS-CoV-2 ORF9B. The description is as above. As for the experimental part:
as §1
For B1, the yeast fitness gain is inactive: -0.102.

In a further assay the target is SARS-CoV-2 ORF9Bwu (the 73-codon ORF). Described as above. As for the experimental part: as §1
Regarding B1, the yeast fitness gain is inactive: -0.0331.

A further assay concerns the target SARS-CoV-2 S. The description is as above. As for the experimental part:
as §1
For the molecule B1, the yeast fitness gain was inactive: 0.0609.
